Results as given in PubChem BioAssay AID1508624 (National Center for Advancing Translational Sciences (NCATS), 2021).
Screen size: about 48,000 compounds; about 120 (0.25%) were called active. Inconclusive results (about 4%) are left out. The call rests on the fitted dose curve; in most records, active means well fitted activation curve with a large enough effect; inconclusive means small, poorly fitted or top-dose-only effect, or another doubt; inactive means no such curve, though single readings can be large or run the other way. This is one part of the list.

experiment: Primary qHTS for Identification of Small Molecule Activators of Huntingtin-Antisense Promoter Activity; settings: HEK293 HTT-AS promoter firefly luciferase reporter, 24 h; series mostly up to 57.5 µM; activity change, positive = activation: at the top concentration; further: nearly all actives have a fitted effect of over 55% in size
Outline: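 HEK293 cells carrying firefly luciferase reporters were seeded at 2,500 per well in Opti-MEM and cultured for 24 h. They were then treated with compounds at up to 57.5 uM final for 24 h at 37 degrees C before Dual-Glo luminescence readout.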

Activity change, positive = activation, inactive:
Cc1ccc(NC(=O)C2CCCN(c3ncnc4onc(-c5ccc(F)cc5)c34)C2)c(Cl)c1 (configuration not stated) -5.12%
CCC(C)NC(=O)Cn1ccc2cc(S(=O)(=O)N3CCCCC3)ccc21 (configuration not stated) -8.09%
Cc1cccc(N2CCN(C(=O)CN3C(=O)COc4ccc(S(=O)(=O)N5CCCCCC5)cc43)CC2)c1C -31.6%
CSc1ncc(C(=O)N2CCN(c3cc(C)ccc3C)CC2)c(C)n1 -29.6%
CCCCn1cc(S(=O)(=O)c2ccc(OC)cc2)c(=O)c2cc(CC)ccc21 -2.26%
CNC(=O)C1CCC(Cn2c(=O)c3sccc3n(CC(=O)Nc3ccc(C)c(C)c3)c2=O)CC1 (configuration not stated) -22.8%
O=S(=O)(c1ccccc1)c1nnn2c1nc(NC1CCCCC1)c1sccc12 -13.7%
COc1ccc(CCNC(=O)C2CCC(CNS(=O)(=O)c3ccc(C)cc3)CC2)cc1OC (configuration not stated) -19%
Cc1ccc(Cl)cc1NC(=O)Nc1nnc(N(C)Cc2ccccc2)s1 -29%
COc1ccc(-c2cc(C)no2)cc1S(=O)(=O)N1CCc2ccccc21 -20.5%
CCc1ccc(NC(=O)CN(c2ccc(C)cc2)S(=O)(=O)c2cccs2)cc1 -9.08%
Cc1ccc(CN(C(=O)c2ccccc2)c2ccccn2)o1 -12.7%
O=C(O)CCCCn1c(SCC(=O)Nc2ccccc2C(F)(F)F)nc2ccsc2c1=O -14.4%
CCC1CN(C(=O)N2CCC(C(=O)NCCc3ccccc3Cl)CC2)c2cc(C)ccc2O1 (configuration not stated) -42.4%
CCCC(O)c1nc2ccccc2n1Cc1ccccc1OC (configuration not stated) -41.1%
COc1cc(NC(=O)CN2c3ccccc3S(=O)(=O)c3ccccc32)cc(OC)c1 -12%
Cc1ccc(Nc2nnc(-c3ccc(C)c(S(=O)(=O)N4CCN(C)CC4)c3)c3ccccc23)cc1 -1.89% [at 11.5 µM, percent change from vehicle, -100% = no light]
COCCNC(=O)CSc1nc(-c2cc(OC)c(OC)c(OC)c2)[nH]c1-c1ccc(Cl)cc1 -14.3%
CCOCCCn1c(SCC(=O)OCC)nc2c(sc3ccccc32)c1=O -4.46%
Cc1ccc(C(=O)CSc2nc(-c3ccccc3)nc3c2CCCC3)c(C)c1 -21%
Cc1cccc(C(C)C)c1NC(=O)C1CCCN1S(=O)(=O)c1cccc2nsnc12 (configuration not stated) -5.88% [at 11.5 µM, percent change from vehicle, -100% = no light]
CCc1ccc(NC(=O)Cn2c(=O)n(CCCCC(=O)NCc3ccc4c(c3)OCO4)c(=O)c3ccccc32)cc1 -28.5%
CC(=O)c1cc(-c2ccccc2)n(CCC(=O)NCc2ccc(C)cc2)c1C -14.8%
CCOc1ccccc1Nc1sc(C(=O)c2ccccc2)c(N)c1C(=O)Nc1ccccc1 -31.3%
CCOc1ccccc1CNc1ccc2cc(S(=O)(=O)N3CCC(C)CC3)ccc2n1 -31.1%
COc1ccc(-c2nn3c(=O)cc(CN4CCN(C(=O)c5ccc(OC)c(OC)c5)CC4)nc3s2)cc1 -9.99%
COc1ccc(-c2noc(N(c3nc(-c4ccc(OC)c(OC)c4)no3)c3ccccc3OC)n2)cc1OC 2.71%
CC(C)(C)c1ccc(C(=O)Nc2ccc3c(c2)CCCN3C(=O)c2cccs2)cc1 -24.6%
Cc1ccc(OCC(=O)Nc2nnc(S(=O)(=O)N3c4ccccc4CC3C)s2)cc1 (configuration not stated) -15.6%
Cc1ccc(C(=O)Nc2ccc(S(=O)(=O)N3CCC(c4nc5ccccc5s4)CC3)cc2)cc1 -16.6%
Cc1ccc(NC(=O)c2nc(S(C)(=O)=O)ncc2N(Cc2ccco2)Cc2cccs2)c(C)c1 -31.1%
Cc1ccc(NC(=O)CSc2nc(=O)n(CCN3CCOCC3)c3c2CCC3)c(C)c1 -27.1%
C[C@@H]1COC(Nc2ccc3ncnc(Nc4ccc(OCc5nccs5)c(Cl)c4)c3c2)=N1 -31.7%
CC(=O)N1CCc2nc3sc(C(=O)c4ccc(F)cc4)c(N)c3c(C(F)(F)F)c2C1 -31.3%
CC(=O)c1cccc(NC(=O)c2nc(-c3ccccc3)n(-c3cccc(Cl)c3)n2)c1 -15.7%
CCc1ccc(NC(=O)C(=O)NCC(c2cccnc2)N2CCN(c3ccc(F)cc3)CC2)cc1 (configuration not stated) -21.5%
Cc1ccc(OCCCCn2nnc3sc4c(c3c2=O)CCCC4)cc1 -7.85%
Cc1ccc(NS(=O)(=O)c2ccc3[nH]c(=O)oc3c2)c(C)c1 -11.9%
O=C(CCC1N=C2c3ccccc3N=C(SCc3ccc(Cl)cc3)N2C1=O)NCCc1ccccc1 (configuration not stated) -12.9%
COc1cc2nc(SCC(=O)Nc3c(C)cc(C)cc3C)n3nc(CCn4c(C)nc5ccccc54)nc3c2cc1OC -14.5%
Fc1ccc(C(NCCc2ccc(Cl)cc2)c2nnc(-c3ccccc3)o2)c(Cl)c1 (configuration not stated) -20.6%
COc1ccccc1CNC(=O)CCn1c(=O)c2ccccc2n(CC(=O)Nc2ccc(C)cc2Cl)c1=O -7.84%
CCOC(=O)c1c(S(=O)(=O)NCC(=O)N2CCN(c3ccccc3)CC2)c(C)n(C)c1C -6.02%
CCc1cccc(C)c1NC(=O)c1cc(S(=O)(=O)NCc2ccccc2Cl)ccc1F -41.9%
CCCn1c2ccccc2c2cnn(CC(=O)N(C)c3ccccc3CC)c(=O)c21 -41.1%
CC(=O)NCC(c1ccc2c(c1)OCO2)N1CCN(c2ccccc2)CC1 (configuration not stated) -6.76%
CCc1ccc(-n2c(=O)c3c(C)c(C)sc3n(CC(=O)NCc3ccc(C)cc3)c2=O)cc1 10.2%
CCCN(CCC)C(=O)Cn1c(=O)n(-c2ccccc2)c(=O)c2c3c(sc21)CCCC3 -22.9%
O=S(=O)(NCc1nc2cccnc2n1Cc1ccccc1)c1ccc2c(c1)CCCC2 -21.5%
N#C/C(=C/c1ccc(Cl)cc1)c1nc(-c2ccc(Br)cc2)cs1 -4.74%
Cc1ccc(CSc2oc(-c3ccco3)nc2S(=O)(=O)c2ccc(C)cc2)cc1 -12.5%
COc1cc(/C=C(\C#N)c2nc3ccccc3[nH]2)cc(Cl)c1OCc1ccccc1Cl -35.4%
COc1ccc(NC(=O)c2ccc3nc(CCc4ccccc4)oc3c2)c(OC)c1 34.2%
Cc1ccccc1NC(=O)N1CCc2c(sc3c2CCCC3)C1c1ccccc1 (configuration not stated) -22.6%
CCOc1ccc(C(=O)Nc2c(C(=O)c3ccc(OC)cc3)oc3ccccc23)cc1 -5.5%
O=C(NCCc1ccccc1)c1ccc(Cn2c(SCc3cccc(F)c3)nc3cccnc32)cc1 3.46%
CCS(=O)(=O)c1ncc(N(Cc2ccccc2)Cc2ccco2)c(C(=O)Nc2ccc(C)c(C)c2)n1 -24.3%
CCn1c(NCc2ccc(OC)cc2)nc2ccccc21 29%
CCOc1ccc(NC(=O)c2ccc3c(=O)n4nc(Nc5ccccc5C)sc4nc3c2)cc1 -6.04%
COc1cc(C(CC(=O)Nc2ccc(F)cc2F)N2Cc3ccccc3C2=O)cc(OC)c1OC (configuration not stated) -33.2%
COCCNC(=O)CCc1c(C)nc2c(-c3ccc(F)cc3)c(C)nn2c1C -36.3%
COc1ccc(CCNC(=O)CCCCn2c(=O)c3ccccc3n(Cc3ccccc3C)c2=O)cc1OC -40.3%
CCC(=O)Nc1ccc(CC)cc1-c1nc2ccccc2n(CC(=O)Nc2cccc(Cl)c2)c1=O -35.4%
CCCCCn1cc2c(c1-c1ccc(Br)cc1)c(=O)n(C)c(=O)n2C -5.99%
COc1ccc(OC)c(NC(=O)c2cc3cc(C)ccc3n2C)c1 -5.92%
CCc1ccccc1NC(=O)Cn1c(=O)n(-c2ccc(C)cc2)c(=O)c2c1c1cc(C)ccc1n2C -2.57%
COc1cccc(NC(=O)Cn2nnc(-c3nc(-c4ccccc4)no3)c2N)c1 -17.7%
Cc1nc2ncnn2c(C)c1CCC(=O)N1CCN(c2ccccc2)CC1 -6.37%
O=C(Cn1c(=O)oc2cc(Cl)ccc21)Nc1cccc(C(F)(F)F)c1 -39.8%
CCCSCCCNC(=O)C1CCCN(c2nn3cc(-c4ccc(OC)cc4)nc3s2)C1 (configuration not stated) -10.9%
Cn1c(=O)c(=O)n(C)c2cc(NC(=O)c3cccc(F)c3)c(Cl)cc21 -8.74%
COc1ccc(N(CC(=O)NCc2ccccc2Cl)S(=O)(=O)c2c(C)nn(C)c2C)cc1 -19.3%
COc1ccc(CCNC(=O)Cn2c(=O)nc(-c3ccccc3)c3ccccc32)cc1OC -9.93%
CCOc1ccccc1CNC(=O)CCCn1ncn2c(cc3occc32)c1=O -10.7%
CCOc1ccc(C(=O)c2cn(CC(=O)Nc3ccc(F)cc3)c3cc4c(cc3c2=O)OCO4)cc1 -30.4%
CN(C)CCCN(C(=O)c1ccc(Br)s1)c1nc2ccc(F)cc2s1 -7.36%
Cc1ccc2cccc(NC(=O)COc3cc(C)c(Cl)c(C)c3)c2n1 -5.37%
Cc1nn(CC(=O)Nc2ccccc2C(F)(F)F)c(=O)c2cccn12 -9%
CCCCN(CC)CCNC(=O)CN1C(=O)COc2ccc(S(=O)(=O)N3CCCC3)cc21 -7.32%
Cc1ccc(CCNC(=O)CCn2nc(-c3ccccc3)ccc2=O)cc1 -6.27%
CCOc1ccc(CNS(=O)(=O)c2ccc3[nH]c(=O)ccc3c2)cc1 -20%
CCC(=O)Nc1ccc2nc(SCCOc3ccccc3)sc2c1 -20.7%
CCCCOc1ccc(CNC(=O)c2ccc(NC(=O)N3CCCCc4ccccc43)cc2)cc1 -5.04%
CC(=O)Nc1nonc1-c1nnc(SCC(=O)Nc2ccccc2)n1-c1ccccc1 -11.7%
Cc1ccc(NC(=O)CSc2ncn[nH]2)cc1C -9.34%
CCOc1ccccc1NC(=O)CCc1c(C)nn(-c2ccc(N3CCOCC3)nn2)c1C -12.2%
CNS(=O)(=O)c1cn(CC(=O)Nc2cccc(OC)c2)cc1S(=O)(=O)NC 0.344%
Cc1c(Cl)cccc1NC(=O)c1noc2c1CCCC2 38.2%
COC(=O)c1ccc(-n2c(CCC(=O)O)ccc2-c2ccc(C)cc2)cc1 -9.3%
CCOC(=O)Cn1c(=O)n(CC2CCCO2)c2nc(-c3cccc(C)c3)nc(C(N)=O)c21 (configuration not stated) 1.5%
Cn1c(=O)oc2cc(S(=O)(=O)NC(Cc3ccccc3)C(=O)NCc3ccc(F)cc3)ccc21 (configuration not stated) 13.8%
Cc1ccc(C)c(N2CCN(Cc3nnc(-c4ccc5c(c4)OCO5)o3)CC2)c1 12.3%
